Test results reported in article PMC8225741.
Results are given in words; binding and its absence hold for the method and conditions named. Binding seen in cells or lysates may run through a third protein. Some entries that bind do so weakly or less than the wild type.

Chains of the proteins cited; added tags and fusions are not shown. Lines headed by an entry give the natural chain unless they say otherwise; changes in a name come on top. A line that says so, or that is headed by a name, gives the form on record, which may keep a tag or linker. Residues count along the entry.
UniProt Q92560: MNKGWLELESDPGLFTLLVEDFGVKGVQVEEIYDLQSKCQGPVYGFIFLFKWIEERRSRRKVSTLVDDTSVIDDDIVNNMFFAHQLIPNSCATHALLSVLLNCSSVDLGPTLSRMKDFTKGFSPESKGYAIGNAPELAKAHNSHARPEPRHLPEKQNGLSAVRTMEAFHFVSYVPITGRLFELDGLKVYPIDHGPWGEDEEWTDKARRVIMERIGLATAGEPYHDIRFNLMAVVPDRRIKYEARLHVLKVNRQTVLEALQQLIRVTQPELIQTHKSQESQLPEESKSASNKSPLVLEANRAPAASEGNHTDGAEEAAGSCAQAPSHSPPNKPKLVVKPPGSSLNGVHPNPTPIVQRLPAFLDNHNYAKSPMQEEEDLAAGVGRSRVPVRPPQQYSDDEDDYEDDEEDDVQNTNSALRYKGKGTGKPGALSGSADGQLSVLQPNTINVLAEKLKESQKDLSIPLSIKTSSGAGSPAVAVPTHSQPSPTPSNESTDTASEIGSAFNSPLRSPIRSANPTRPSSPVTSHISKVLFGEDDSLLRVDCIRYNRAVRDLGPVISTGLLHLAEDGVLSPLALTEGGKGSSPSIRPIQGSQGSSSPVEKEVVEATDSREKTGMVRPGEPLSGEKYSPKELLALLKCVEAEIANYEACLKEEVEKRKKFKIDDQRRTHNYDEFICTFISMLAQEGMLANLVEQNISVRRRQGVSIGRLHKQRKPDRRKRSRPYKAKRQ
UniProt Q8IXJ9: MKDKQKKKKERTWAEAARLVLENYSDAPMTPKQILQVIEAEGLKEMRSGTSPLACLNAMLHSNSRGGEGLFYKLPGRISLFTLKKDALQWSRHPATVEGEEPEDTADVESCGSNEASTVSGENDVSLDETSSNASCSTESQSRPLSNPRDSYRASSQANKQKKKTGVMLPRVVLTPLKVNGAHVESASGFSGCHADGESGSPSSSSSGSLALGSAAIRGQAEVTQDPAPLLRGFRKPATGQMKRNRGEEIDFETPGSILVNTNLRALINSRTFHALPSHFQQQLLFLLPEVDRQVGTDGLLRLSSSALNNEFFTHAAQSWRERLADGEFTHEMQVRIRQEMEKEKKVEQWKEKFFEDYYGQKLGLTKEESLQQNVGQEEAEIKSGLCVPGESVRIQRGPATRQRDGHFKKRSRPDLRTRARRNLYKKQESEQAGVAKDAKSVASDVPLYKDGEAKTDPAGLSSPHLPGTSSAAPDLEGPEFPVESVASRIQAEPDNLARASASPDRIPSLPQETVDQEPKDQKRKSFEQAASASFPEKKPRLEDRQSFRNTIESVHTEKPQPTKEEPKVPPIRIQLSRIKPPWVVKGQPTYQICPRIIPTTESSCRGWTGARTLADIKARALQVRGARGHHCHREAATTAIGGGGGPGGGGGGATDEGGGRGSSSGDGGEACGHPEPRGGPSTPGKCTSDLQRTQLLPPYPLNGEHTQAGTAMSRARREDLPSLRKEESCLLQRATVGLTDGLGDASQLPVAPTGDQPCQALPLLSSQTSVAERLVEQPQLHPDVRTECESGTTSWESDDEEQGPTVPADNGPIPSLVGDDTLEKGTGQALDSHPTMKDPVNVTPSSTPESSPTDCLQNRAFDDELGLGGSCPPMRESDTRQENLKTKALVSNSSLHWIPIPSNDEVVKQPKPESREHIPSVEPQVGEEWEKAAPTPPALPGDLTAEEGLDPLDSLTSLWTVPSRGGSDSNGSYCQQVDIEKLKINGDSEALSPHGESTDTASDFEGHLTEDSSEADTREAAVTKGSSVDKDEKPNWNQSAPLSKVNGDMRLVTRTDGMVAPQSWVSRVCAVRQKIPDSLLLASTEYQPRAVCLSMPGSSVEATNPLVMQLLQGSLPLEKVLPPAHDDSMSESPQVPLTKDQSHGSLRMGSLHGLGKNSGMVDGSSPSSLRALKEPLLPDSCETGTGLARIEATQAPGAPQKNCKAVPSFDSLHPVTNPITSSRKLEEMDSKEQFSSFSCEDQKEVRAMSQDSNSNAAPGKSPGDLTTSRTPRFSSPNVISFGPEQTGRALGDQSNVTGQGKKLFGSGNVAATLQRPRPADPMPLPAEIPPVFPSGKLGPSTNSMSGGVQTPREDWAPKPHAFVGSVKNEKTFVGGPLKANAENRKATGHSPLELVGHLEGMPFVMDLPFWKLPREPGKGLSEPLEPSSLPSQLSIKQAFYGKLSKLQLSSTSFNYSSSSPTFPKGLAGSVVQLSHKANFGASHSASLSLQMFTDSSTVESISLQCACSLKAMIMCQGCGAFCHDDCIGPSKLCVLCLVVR
ASXL1^N646-Flag (in HEK293T): residues 1-646 of Q8IXJ9
Flag-tagged C-terminally truncated ASXL1 N590: residues 1-590 of Q8IXJ9
UniProt Q01167: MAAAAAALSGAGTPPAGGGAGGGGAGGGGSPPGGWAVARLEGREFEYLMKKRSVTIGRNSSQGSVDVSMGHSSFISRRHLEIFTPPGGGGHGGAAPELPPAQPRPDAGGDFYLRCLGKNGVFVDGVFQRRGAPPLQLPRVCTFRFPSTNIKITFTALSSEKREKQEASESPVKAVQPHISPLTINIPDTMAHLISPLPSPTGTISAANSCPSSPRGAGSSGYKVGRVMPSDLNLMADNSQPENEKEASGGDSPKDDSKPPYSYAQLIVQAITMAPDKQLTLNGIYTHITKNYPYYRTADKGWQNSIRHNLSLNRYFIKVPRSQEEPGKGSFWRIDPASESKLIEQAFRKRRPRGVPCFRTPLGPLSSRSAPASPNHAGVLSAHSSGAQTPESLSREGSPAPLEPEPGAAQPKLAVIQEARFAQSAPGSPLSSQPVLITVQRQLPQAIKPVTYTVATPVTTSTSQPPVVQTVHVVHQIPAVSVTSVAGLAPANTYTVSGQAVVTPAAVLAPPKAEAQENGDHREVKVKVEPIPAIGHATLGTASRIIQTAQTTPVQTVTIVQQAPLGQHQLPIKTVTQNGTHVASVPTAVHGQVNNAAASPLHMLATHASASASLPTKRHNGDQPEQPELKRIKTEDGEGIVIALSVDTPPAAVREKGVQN

Columns and labels:
[1] = biological target: Flag-tagged BAP1 (BRCA1-associated protein 1) (human) (UniProt Q92560); assay: co-IP; HEK293T co-transfected with BAP1-Flag and increasing amounts of ASXL1^N646-Myc; anti-Flag IP, endogenous ASXL1 detected by Western blot (competition)
[2] = biological target: Flag-tagged C-terminally truncated ASXL1 N590 (human) (UniProt Q8IXJ9); assay: co-IP; HEK293T transfected with the Flag-tagged protein; lysis in 50 mmol/L Tris-HCl, 150 mmol/L NaCl, 0.3% sodium deoxycholate, 0.5% NP-40, pH 7.4; anti-Flag beads 3 h at 4 °C; endogenous partners by Western blot; also in BAP1 knockdown (Flag-ASXL1) and ASXL1 knockdown (Flag-BAP1) cells
[3] = biological target: ASXL1^N646-Flag (in HEK293T) (human) (UniProt Q8IXJ9); assay: as above
[4] = biological target: Flag-tagged wild-type ASXL1 (in HEK293T) (human) (UniProt Q8IXJ9); assay: as above
[5] = biological target: endogenous BAP1 (human (endogenous in U2OS, HEK293T, K562, Kasumi-1)) (UniProt Q92560); assay: co-IP; endogenous proteins in K562 and Kasumi-1 lysates (ASXL1^+/N590, ASXL1^+/N646 and ASXL1^+/− clones); IP with anti-BAP1 antibody, 3 h at 4 °C, Western blot

Row | binding [1] | binding [2] | binding [3] | binding [4] | binding [5] | Substance
1 | binds |  |  |  |  | ASXL1^N646-Myc (from UniProt Q8IXJ9 1-646) (domain or fragment)
2 |  | binds | binds | binds |  | endogenous BAP1 (from UniProt Q92560 1-729) (enzyme)
3 |  | no binding | no binding | binds |  | endogenous FOXK2 (from UniProt Q01167 1-660)
4 | binds |  |  |  | binds | endogenous wild-type ASXL1 (Additional sex combs-like 1) (from UniProt Q8IXJ9 1-1541)
